{"source": "PubChem BioAssay AID504333", "about": "(National Center for Advancing Translational Sciences (NCATS), 2011)", "note": "Screen size: about 360,000 compounds; about 16,000 (4.4%) were called active. Inconclusive results, whose numbers are uncertain, are shown with a selection of clear calls. Calls follow the shape of the dose curve; as a rule, active = well fitted inhibition curve with a large enough effect; inconclusive = small, poorly fitted or top-dose-only effect; inactive = no such curve, though single readings can be large or run the other way. Where the call is inconclusive, the potency comes from a doubtful curve fit. Potency is read from the fitted curve at half-maximal effect; tags tell the direction and shape of the fitted curve."}
{"target": "Bromodomain adjacent to zinc finger domain protein 2B (Homo sapiens) (UniProt Q9UIF8)", "sequence (Q9UIF8 whole entry, looked up, the tested form may be a part)": "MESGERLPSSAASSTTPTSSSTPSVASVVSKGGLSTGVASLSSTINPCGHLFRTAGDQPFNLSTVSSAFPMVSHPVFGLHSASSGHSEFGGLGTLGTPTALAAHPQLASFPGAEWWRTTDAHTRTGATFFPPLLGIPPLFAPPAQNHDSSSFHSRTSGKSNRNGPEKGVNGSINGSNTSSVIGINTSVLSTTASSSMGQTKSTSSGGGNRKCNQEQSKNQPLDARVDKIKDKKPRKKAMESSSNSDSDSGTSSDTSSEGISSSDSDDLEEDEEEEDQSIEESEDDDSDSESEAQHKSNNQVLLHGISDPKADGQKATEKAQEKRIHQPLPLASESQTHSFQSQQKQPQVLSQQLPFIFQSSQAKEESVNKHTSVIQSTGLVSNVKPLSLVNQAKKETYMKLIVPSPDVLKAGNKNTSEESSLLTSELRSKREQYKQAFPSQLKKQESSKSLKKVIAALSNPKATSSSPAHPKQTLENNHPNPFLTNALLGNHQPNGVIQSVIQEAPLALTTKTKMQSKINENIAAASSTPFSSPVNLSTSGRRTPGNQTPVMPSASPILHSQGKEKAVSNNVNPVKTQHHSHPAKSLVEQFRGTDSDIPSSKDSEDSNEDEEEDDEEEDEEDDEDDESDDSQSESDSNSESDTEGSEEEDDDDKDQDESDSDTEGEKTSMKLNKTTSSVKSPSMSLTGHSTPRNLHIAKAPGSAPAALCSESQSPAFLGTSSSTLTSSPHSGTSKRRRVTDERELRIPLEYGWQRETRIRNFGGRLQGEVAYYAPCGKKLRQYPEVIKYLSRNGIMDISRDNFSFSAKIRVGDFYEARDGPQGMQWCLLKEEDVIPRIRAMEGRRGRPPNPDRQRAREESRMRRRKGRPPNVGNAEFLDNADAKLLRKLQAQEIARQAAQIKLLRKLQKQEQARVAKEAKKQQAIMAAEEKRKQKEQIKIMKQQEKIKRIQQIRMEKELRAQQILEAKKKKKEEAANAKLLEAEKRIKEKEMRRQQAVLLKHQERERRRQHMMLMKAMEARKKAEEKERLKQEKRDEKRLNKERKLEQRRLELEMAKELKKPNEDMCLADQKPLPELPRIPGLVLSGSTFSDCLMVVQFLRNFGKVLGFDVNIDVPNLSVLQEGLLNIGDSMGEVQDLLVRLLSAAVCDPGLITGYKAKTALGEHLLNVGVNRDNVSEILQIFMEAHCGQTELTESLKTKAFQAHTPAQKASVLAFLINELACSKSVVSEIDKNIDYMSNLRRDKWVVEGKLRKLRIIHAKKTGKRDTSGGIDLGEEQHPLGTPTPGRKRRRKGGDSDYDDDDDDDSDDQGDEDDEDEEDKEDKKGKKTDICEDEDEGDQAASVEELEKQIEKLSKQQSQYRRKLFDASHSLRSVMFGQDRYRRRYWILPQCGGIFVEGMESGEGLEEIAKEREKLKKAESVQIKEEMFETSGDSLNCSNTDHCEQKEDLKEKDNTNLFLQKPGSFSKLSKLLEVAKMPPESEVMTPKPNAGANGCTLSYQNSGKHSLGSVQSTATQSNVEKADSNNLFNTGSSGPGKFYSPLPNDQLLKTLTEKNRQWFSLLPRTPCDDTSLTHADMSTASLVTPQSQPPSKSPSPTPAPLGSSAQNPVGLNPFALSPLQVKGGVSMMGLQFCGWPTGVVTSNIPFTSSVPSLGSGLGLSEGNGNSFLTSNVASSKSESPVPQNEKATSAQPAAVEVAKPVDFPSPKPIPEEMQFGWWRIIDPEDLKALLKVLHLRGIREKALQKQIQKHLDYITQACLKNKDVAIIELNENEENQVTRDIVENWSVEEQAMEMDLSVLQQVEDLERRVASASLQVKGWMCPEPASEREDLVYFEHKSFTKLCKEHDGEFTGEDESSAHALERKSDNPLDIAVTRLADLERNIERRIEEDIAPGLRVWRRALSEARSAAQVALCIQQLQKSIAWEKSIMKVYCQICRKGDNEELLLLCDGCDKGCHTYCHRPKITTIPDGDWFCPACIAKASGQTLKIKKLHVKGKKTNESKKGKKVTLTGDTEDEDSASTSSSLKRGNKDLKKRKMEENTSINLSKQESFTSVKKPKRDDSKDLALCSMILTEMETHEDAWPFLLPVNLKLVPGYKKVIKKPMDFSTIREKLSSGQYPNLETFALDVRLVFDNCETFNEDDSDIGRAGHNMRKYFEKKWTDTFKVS", "test": "qHTS Assay for Inhibitors of BAZ2B; also: nearly all actives have a fitted effect of over 60% in size", "settings": "AlphaScreen BAZ2B-H3K14Ac peptide displacement; series mostly up to 114 µM", "method_in_brief": "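Protein-peptide AlphaScreen: BAZ2B 50 nM, b-H3K14Ac 50 nM, 1x PBS pH 7.4 + 0.01% Tween-20. Preincubation 30 min RT; cpd 30 min RT (top 110 uM); beads 20 min RT, light-protected.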"}
{"molecule": "COc1ccc(NC(=O)c2oc3ccccc3c2C)cn1", "Potency": "inconclusive: 8.91 µM [inhibitor, full curve, poor fit]"}
{"molecule": "Cc1oc(-c2ccc(Cl)cc2)cc1-c1nn2c(-c3ccoc3C)nnc2s1", "Potency": "inactive"}
{"molecule": "Cc1ccc(NC(=O)c2ccccc2OCC(=O)Nc2ccccc2F)cc1S(=O)(=O)N(C)C", "Potency": "inactive"}
{"molecule": "CN(CC(=O)Nc1cccc(F)c1)C(=O)c1cc([N+](=O)[O-])ccc1N1CCCCC1", "Potency": "inconclusive: 50.1 µM [inhibitor, partial curve]"}
{"molecule": "O=C(COC(=O)c1cccc2c1C(=O)c1ccccc1C2=O)NC1CCCCC1", "Potency": "active: 39.8 µM"}
{"molecule": "COc1cc(-c2noc(C)c2C#Cc2nccn2C)cc(OC)c1OC", "Potency": "inconclusive: 35.5 µM [inhibitor, partial curve]"}
{"molecule": "CCOC(=O)C1=C(C)C(c2cccc(Oc3ccccc3)c2)NC(=S)N1", "note": "(stereo not drawn)", "Potency": "inconclusive: 56.2 µM [inhibitor, single point]"}
{"molecule": "COc1ccc(N=C2S/C(=C\\c3cccs3)C(=O)N2CC(C)C)cc1", "Potency": "inconclusive: 20 µM [inhibitor, full curve]"}
{"molecule": "S=c1[nH]nc(-c2ccccc2)n1C1C=CCCC1", "note": "(stereo not drawn)", "Potency": "inactive"}
{"molecule": "COc1ccc(CCN2C(=S)N(c3ccc(Cl)cc3)C(=O)C2CC(N)=O)cc1OC", "note": "(stereo not drawn)", "Potency": "inactive"}
{"molecule": "COCC(=O)OCC(=O)c1cc(C)n(-c2ccc(Br)cc2)c1C", "Potency": "inconclusive: 70.8 µM [inhibitor, partial curve]"}
{"molecule": "CCC(=O)Nc1cccc(C(=O)/C=C/c2cc(Br)ccc2OC)c1", "Potency": "inconclusive: 89.1 µM [inhibitor, single point]"}
{"molecule": "O=[N+]([O-])c1ccc(N2CCCCC2)c(-c2nn[nH]n2)c1", "Potency": "inconclusive: 79.4 µM [inhibitor, single point]"}
{"molecule": "CCC(=O)Nc1nc(C)c(-c2csc(Nc3ccccn3)n2)s1", "Potency": "active: 39.8 µM"}
{"molecule": "CC(C)c1ccc(OCC(=O)Nc2ccc3oc(=O)ccc3c2)cc1", "Potency": "inactive"}
{"molecule": "Cc1ccc(NS(=O)(=O)c2ccc3[nH]c4c(c3c2)CCCCC4)cc1", "Potency": "inactive"}
{"molecule": "COc1ccc(S(=O)(=O)c2cn(C)c3cc(N4CCOCC4)c(F)cc3c2=O)cc1", "Potency": "inactive"}
{"molecule": "O=C(O)c1ccc(N/N=C/c2ccc(-c3ccc(Cl)cc3Cl)o2)cc1", "Potency": "inconclusive: 89.1 µM [inhibitor, single point]"}
{"molecule": "COc1ccc(-c2ccnc3cc(C(=O)O)nn23)cc1", "Potency": "inconclusive: 79.4 µM [inhibitor, single point]"}
{"molecule": "O=C(NCCc1ccccc1)C1CCN(Cc2ccccc2F)CC1", "Potency": "active: 56.2 µM"}
{"molecule": "O=S(=O)(NCCc1nnc2ccc(SCc3c(F)cccc3Cl)nn12)c1ccccc1", "Potency": "inconclusive: 70.8 µM [inhibitor, single point]"}
{"molecule": "COCCNC(=O)NC(=O)COC(=O)c1ccc2[nH]c3c(c2c1)CCCC3", "Potency": "inactive"}
{"molecule": "COc1ccc(N2CCN(C(=O)CSc3nnc(NC(=O)C4CCC4)s3)CC2)cc1", "Potency": "inactive"}
{"molecule": "CCC(Oc1ccccc1)C(=O)Nc1ccc(OCc2cc(=O)n3ccc(C)cc3n2)cc1", "note": "(stereo not drawn)", "Potency": "inactive"}
{"molecule": "COC(=O)C1=C(C)N(CC2CC2)C(=NCc2cc(OC)c(OC)c(OC)c2)N[C@H]1c1ccccc1", "Potency": "inconclusive: 89.1 µM [inhibitor, single point]"}
{"molecule": "CC(C)Cc1nn2c(=O)cc(CSCC(=O)Nc3ccccc3F)nc2s1", "Potency": "inactive"}
{"molecule": "CN(CC(=O)Nc1ccc(F)cc1)C(=O)c1ccc(-c2ccc(Cl)cc2)o1", "Potency": "inconclusive: 56.2 µM [inhibitor, partial curve]"}
{"molecule": "Cc1ccc(NC(=O)CSc2nc3ccc(NC(=O)CCc4ccccc4)cc3s2)c(C)c1", "Potency": "inactive"}
{"molecule": "CN(C)[C@@H](CO)c1nnc([C@H](CC(=O)O)NC(=O)C2CCNCC2)o1", "Potency": "inconclusive: 79.4 µM [inhibitor, partial curve]"}
{"molecule": "O=C(OCN1C(=O)c2ccccc2C1=O)/C(=C\\c1ccco1)NC(=O)c1ccccc1", "Potency": "inactive"}
{"molecule": "CC(=O)OCC1=C(C(=O)O)N2C(=O)C(NC(=O)CC(C)c3ccccc3)C2SC1", "note": "(stereo not drawn)", "Potency": "inconclusive: 89.1 µM [inhibitor, single point]"}
{"molecule": "CNS(=O)(=O)c1cn(CC(=O)N2CCN(c3cccc(Cl)c3)CC2)cc1S(=O)(=O)NC", "Potency": "inactive"}
{"molecule": "COc1ccc(NC(=O)COc2ccccc2F)cc1S(=O)(=O)N1CCCCC1", "Potency": "inactive"}
{"molecule": "O=C(Nc1cc(S(=O)(=O)N2CCOCC2)ccc1N1CCCC1)c1ccc2c(c1)S(=O)(=O)c1ccccc1C2=O", "Potency": "inconclusive: 39.8 µM [inhibitor, partial curve]"}
{"molecule": "Cc1cc[n+](-c2[nH]c(=O)sc2/C=N/N=C(\\[O-])CCn2c3ccccc3c3ccccc32)cc1", "Potency": "inconclusive: 50.1 µM [inhibitor, partial curve]"}
{"molecule": "CC(C)Oc1ccc(CNC(=O)c2ccccc2NC(=O)c2nsc3ccccc23)cc1", "Potency": "inactive"}
{"molecule": "C#CCOc1ccc2ccccc2c1/C=C(/C#N)c1ccc(C(=O)O)cc1", "Potency": "inconclusive: 89.1 µM [inhibitor, single point]"}
{"molecule": "CCCS(=O)(=O)N1CCN(CCCc2ccccc2)CC1", "Potency": "active: 79.4 µM"}
{"molecule": "CN(C)CCCN(C(=O)c1ccc(S(=O)(=O)N2CCCCCC2)cc1)c1nc2c(F)cccc2s1", "Potency": "inconclusive: 70.8 µM [inhibitor, partial curve]"}
{"molecule": "CSc1ccccc1NC(=O)COC(=O)CCc1ccccc1", "Potency": "inactive"}
{"molecule": "O=[N+]([O-])c1ccc(Oc2cccc(F)c2)c2ccncc12", "Potency": "inconclusive: 44.7 µM [inhibitor, partial curve]"}
{"molecule": "COc1ccc(-n2c(Cc3cccn3C)nnc2SCC(=O)Nc2cccc(OC)c2)cc1", "Potency": "inconclusive: 50.1 µM [inhibitor, partial curve]"}
{"molecule": "Cc1c(C(=O)C(=O)N2c3ccccc3CC2C)c2ccccc2n1C", "note": "(stereo not drawn)", "Potency": "inconclusive: 79.4 µM [inhibitor, single point]"}
{"molecule": "Cc1ccc(-c2cc(C(=O)Nc3ccc(S(=O)(=O)Nc4onc(C)c4C)cc3)c3ccccc3n2)cc1", "Potency": "active: 50.1 µM"}
{"molecule": "CC1CCC2(CC1)NC(=S)N(c1ccccc1)N2", "note": "(stereo not drawn)", "Potency": "active: 79.4 µM"}
{"molecule": "CN(C)c1ccc(CNC(=O)c2ccc3c(c2)N(C)C(=O)C2CCCCN32)cc1", "note": "(stereo not drawn)", "Potency": "active: 44.7 µM"}
{"molecule": "CCOc1ccccc1N1CC(c2nc3ccccc3n2CCCCOc2cc(C)ccc2C)CC1=O", "note": "(stereo not drawn)", "Potency": "inactive"}
{"molecule": "COCCNS(=O)(=O)c1ccc(-c2ccc(C)cc2)cc1", "Potency": "inconclusive: 100 µM [inhibitor, single point]"}
{"molecule": "Cc1cc(C)nc(NC(=O)c2cccc([N+](=O)[O-])c2C)n1", "Potency": "inconclusive: 56.2 µM [inhibitor, partial curve]"}
{"molecule": "C/C(=N\\NC(=O)c1cccnc1)c1ccccc1", "Potency": "inactive"}
{"molecule": "COc1ccc(C2=NN(C(=O)CSc3ncccn3)C(c3ccc(OC)cc3)C2)cc1", "note": "(stereo not drawn)", "Potency": "inconclusive: 70.8 µM [inhibitor, single point]"}
{"molecule": "COc1ccc(Cc2nnc(NC(=O)Cc3cccs3)s2)cc1OC", "Potency": "active: 28.2 µM"}
{"molecule": "COc1ccccc1CNc1ccc(-c2nc(-c3cccc(C)c3)no2)cc1[N+](=O)[O-]", "Potency": "inactive"}
{"molecule": "Cc1cc2ccccc2nc1Br", "Potency": "inactive"}
{"molecule": "Oc1cccc(C2c3[nH]c4ccccc4c3CCN2Cc2cnn(-c3ccccc3)c2)c1", "note": "(stereo not drawn)", "Potency": "inconclusive: 50.1 µM [inhibitor, partial curve]"}
{"molecule": "COc1cc(NC(=O)CSc2ncnc3sc4c(c23)CCCC4)c(C(=O)O)cc1OC", "Potency": "inactive"}
{"molecule": "COc1cccc(C(=O)NCC(c2ccc3c(c2)OCO3)N2CCN(c3ccc(F)cc3)CC2)c1", "note": "(stereo not drawn)", "Potency": "inactive"}
{"molecule": "O=C(O)COc1cccc(/C=C2/SC(=S)N(Cc3ccccc3)C2=O)c1", "Potency": "inconclusive: 50.1 µM [inhibitor, partial curve]"}
{"molecule": "Cc1nnc(SCCN2CCOCC2)n1C", "Potency": "inconclusive: 79.4 µM [inhibitor, single point]"}
{"molecule": "O=C(CN1CCN(CC(=O)Nc2ccccc2F)CC1)Nc1ccc(Cl)c(C(F)(F)F)c1", "Potency": "inactive"}
{"molecule": "Cc1cc(C)c(S(=O)(=O)Nc2ccc(N(C)C)cc2)c(C)c1-n1cnnn1", "Potency": "active: 39.8 µM"}
{"molecule": "CC1C(=NO)C(C)C(c2ccc(N(C)C)cc2)NC1c1ccc(N(C)C)cc1", "note": "(stereo not drawn)", "Potency": "active: 39.8 µM"}
{"molecule": "COc1cccc(CC(=O)Nc2ccc3c(c2)OC2(CCCC2)O3)c1", "Potency": "inconclusive: 44.7 µM [inhibitor, partial curve]"}
{"molecule": "Cc1ccccc1OCCNc1ccc(C(F)(F)F)cc1[N+](=O)[O-]", "Potency": "inconclusive: 8.91 µM [inhibitor, full curve, poor fit]"}
{"molecule": "CCCN1C(=O)/C(=c2\\sc3nc(=O)c(Cc4ccc(C)cc4)nn3c2=O)c2ccccc21", "Potency": "inconclusive: 50.1 µM [inhibitor, partial curve]"}
{"molecule": "CCCNC(=O)c1ccc(N2CCC3(CC2)CC(c2cccc(Br)c2)=NO3)c([N+](=O)[O-])c1", "Potency": "inconclusive: 50.1 µM [inhibitor, partial curve]"}
{"molecule": "COc1ccc(-c2nn(-c3ccccc3)cc2/C=N/NC(N)=S)cc1OC", "Potency": "inconclusive: 35.5 µM [inhibitor, full curve, poor fit]"}
{"molecule": "COc1ccc(NC(=O)C2=C(C)Nc3ncnn3C2c2ccccn2)cc1", "note": "(stereo not drawn)", "Potency": "inconclusive: 89.1 µM [inhibitor, single point]"}
{"molecule": "CCOC(=O)C1CCCN(c2c(C(=O)c3ccccc3)cnc3ccccc23)C1", "note": "(stereo not drawn)", "Potency": "inconclusive: 44.7 µM [inhibitor, partial curve]"}
{"molecule": "COc1ccccc1N1CCN(C(=O)c2ccc([N+](=O)[O-])s2)CC1", "Potency": "inactive"}
{"molecule": "Cc1cc(C)c2cc(C(c3nnnn3C3CCCC3)N3CCOCC3)c(=O)[nH]c2c1", "note": "(stereo not drawn)", "Potency": "inactive"}
{"molecule": "CCNc1ccccc(C(=O)/C=C/c2ccc3c(c2)OCO3)c1=O", "Potency": "active: 44.7 µM"}
{"molecule": "Nc1nc(SC2c3cccc4cccc(c34)C2NS(=O)(=O)c2ccccc2)n[nH]1", "note": "(stereo not drawn)", "Potency": "inconclusive: 89.1 µM [inhibitor, single point]"}
